Reference: PubChem BioAssay AID652106 (National Center for Advancing Translational Sciences (NCATS), 2013)
About 500 (0.14%) of roughly 370,000 compounds were called active. Inconclusive means that the source gave no clear call. Such entries were picked first, then a sample of the others. The call rests on the fitted dose curve; in most records, active means well fitted activation curve with a large enough effect; inconclusive means small, poorly fitted or top-dose-only effect; inactive means no such curve, though single readings can be large or run the other way. Potencies of inconclusive entries are left out as doubtful fits.

assay: qHTS of alpha-syn Inhibitors; conditions: Yeast expressing alpha-synuclein, BacTiter-Glo, 24 h; Potency: growth rescue unless noted; growth rescue (activation): at 46.1 µM (top of the series) unless noted; further: nearly all actives have a fitted effect of over 65% in size; on growth rescue (activation): % of control where 0% means no effect
Method in brief: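 Readout is rescue of growth in alpha-synuclein-expressing yeast, so inhibitors of toxicity appear as activators. Growth after 24 hr at 30 deg C in galactose medium is quantified by luminescence.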
Potency means the concentration at half of the fitted maximal effect; tags describe the fitted curve by direction and shape.

| Compound | Potency | growth rescue (activation) |
| --- | --- | --- |
| O=C(CC(Nc1cccc(Cl)c1Cl)C(=O)O)c1ccccc1 (stereo not given) | inconclusive [activator, partial curve] |  |
| FC(F)(F)c1cccc(NC(=S)N(CCCN2CCCC2)Cc2cccn2Cc2ccc(Cl)cc2)c1 | inconclusive [activator, single point] |  |
| CCOC(=O)c1cccc(NC(=O)C2(S(=O)(=O)c3ccc(C)cc3)CC2)c1 | inconclusive [activator, single point] |  |
| O=C(c1cc(S(=O)(=O)N2CCN(c3ccccc3)CC2)ccc1Cl)N1CCCCCCC1 | inactive |  |
| Cc1cccc(COC[C@H](Cc2ccccc2)N2CCN(C(=O)c3cccc(Cl)c3)CCC2=O)c1 | inconclusive [activator, single point] |  |
| CCCNC(=O)OCc1cccnc1Sc1ccc(C)cc1 | inactive |  |
| O=C1c2cccnc2C(=O)N1Cc1ccc(S(=O)(=O)N2CCOc3ccc(Cl)cc32)cc1 | inconclusive [activator, single point] |  |
| CC(C)(C)c1ccc(C(=O)N2CCC(NC(=O)c3ccccc3)CC2)cc1 | inactive |  |
| CN(C)C(CNC(=O)c1cccc(S(=O)(=O)Nc2ccc(Br)cc2)c1)c1ccco1 (stereo not given) | inconclusive [activator, single point] |  |
| O=C(CC1CC2CCC1C2)N1CCN(S(=O)(=O)c2ccccc2C(F)(F)F)CC1 (stereo not given) |  | inactive: 3.63% [at 1.84 µM] |
| CC1CC(C)C(=O)C(C(CC2CC(=O)NC(=O)C2)OC(=O)CC(=O)c2ccccc2)C1 (stereo not given) |  | inconclusive: -65.4% [activator] |
| O=c1cc(CSc2ccc(Cl)cc2)nc(-c2ccccn2)[nH]1 | active: 10 µM |  |
| Clc1ccc2[nH]c(-c3ccccc3)cc2c1 | inactive |  |
| CCN(CC(=O)Nc1ccc(OC)cc1)C(=O)c1ccc2[nH]c3c(c2c1)CC(C)CC3 (stereo not given) | inconclusive [activator, single point] |  |
| CC(=O)Nc1ccc(CNc2nc3cc(-c4ccccc4C)sc3c(=O)n2C)cc1 | inconclusive [activator, single point] |  |
| N#C/C(=C\c1ccco1)C(=O)Nc1ccc(S(N)(=O)=O)cc1 | inconclusive [activator, single point] |  |
| CCC1CCCCN1S(=O)(=O)c1ccc(C(=O)Nc2nnc(-c3cccs3)o2)cc1 (stereo not given) | inconclusive [activator, partial curve] |  |
| COCC(=O)Nc1nc2ccccc2s1 | inactive |  |
| CCOC(=O)c1sc(NC(=O)c2ccc(CC)s2)nc1C | inconclusive [activator, single point] |  |
| COC(=O)c1ccc2c(c1)N(CC(=O)Nc1ccc(C)cc1Cl)C(=O)c1ccccc1S2 | inconclusive [activator, single point] |  |
| COc1ccc(C=C2NC(=O)NC2=O)cc1O | inconclusive [activator, single point] |  |
| COCCCN(C(=S)Nc1c(C)cc(C)cc1C)C(C)c1ccncc1 (stereo not given) | inconclusive [activator, single point] |  |
| COc1cccc2c1C(=O)c1c(O)c3c(c(O)c1C2=O)CC(O)(C(C)=O)CC3OC1CC(N(C)C)C(O)C(C)O1 (stereo not given) |  | inconclusive: -74.5% [activator] |

| Compound | Potency | growth rescue (activation) |
| --- | --- | --- |
| O=C(Nc1cc(OC(=O)C(F)(F)F)c2nonc2c1OC(=O)C(F)(F)F)C(F)(F)F | inconclusive [activator, single point] |  |
| Brc1c(Br)c(Br)c2[nH]cnc2c1Br | inconclusive [activator, full curve] |  |
| COCCn1nnnc1CN1CCN(C(=O)c2ccco2)CC1 | inactive |  |
| CC(C)(C)NC(=O)NC(=O)COC(=O)c1ccc(OC(F)(F)F)cc1 | inconclusive [activator, single point] |  |
| COc1ccc(/C=N/N=C2/NC(=O)C(CC(=O)NC(C)C)S2)cc1 (stereo not given) | inactive |  |
| COc1ccc(C(=O)N(Cc2nc(-c3ccc(C)cc3)no2)C2CCCCC2)cc1OC | inconclusive [activator, single point] |  |
| CCc1nnc(NC(=O)c2nc3nccc(C)n3n2)s1 | inconclusive [activator, single point] |  |
| CC1=C(C(=O)OC2CCCCC2)C(c2cccc([N+](=O)[O-])c2)NC(=O)N1 (stereo not given) | inconclusive [activator, single point] |  |
| CC(=O)c1cccc(NC(=O)Cc2ccc3c(c2)CCCC3)c1 | inconclusive [activator, single point] |  |
| Brc1c(CSc2nncc3ccccc23)nc2ccccn12 | inconclusive [activator, partial curve] |  |
| O=C(Nc1ccncc1)c1cc(F)cc(F)c1 | inconclusive [activator, single point] |  |
| CCOc1ccc(-c2noc(CCC(=O)O)n2)cc1 | inactive |  |
| COc1cc2oc3ccccc3c(=O)c2cc1OC | inconclusive [activator, single point] |  |
| CCN1CCN(c2ccc(/C=C/c3ccnc4ccccc34)cc2)CC1 | inactive |  |
| Cc1cccc(OCCCC(=O)NNC(=O)c2ccccn2)c1 | inconclusive [activator, single point] |  |
| COc1ccc(O)c(-c2cc(-c3ccccc3Cl)[nH]n2)c1 | inactive |  |
| C=CCn1c2ccccc2c2nnc(SCN3C(=O)c4ccccc4C3=O)nc21 | inconclusive [activator, partial curve] |  |
| CC1CC(C)CN(C(=O)COC(=O)CN2C(=O)c3ccccc3C2=O)C1 (stereo not given) | inactive |  |
| COc1ccc(C(=O)N(C)CCCC2CCCC2)cc1OC1CCN(C(C)C)CC1 | inconclusive [activator, single point] |  |
| CCn1c(CNc2ccc(F)cc2)nnc1SCC(=O)OC1CCCCC1 | inconclusive [activator, single point] |  |
| CCN(CC)c1ccc(S(=O)(=O)N2CCCCC2)cc1NC(=O)C1=COCCO1 | inactive |  |
| COc1cccc(CSC(C(=O)O)c2ccccc2)c1 (stereo not given) | inconclusive [activator, single point] |  |
